Experimental data from ChEMBL document CHEMBL5308541, “MAIP: An Open-Source Tool to Enrich High-Throughput Screening Output and Identify Novel, Druglike Molecules with Antimalarial Activity” (ACS Med Chem Lett, 2023).
Screen size: about 150,000 compounds; about 540 (0.36%) showed an effect of 50% or more. The list shows a part of the results.

system: Plasmodium falciparum; test: Primary screen in NF54 nanoGlo assay, in single point, at 2uM, 72h; a lower Z score goes with more inhibition; format: functional, Erythrocyte; details: timepoint 72 hour

SMILES | % Inhibition | Z score
Cc1nc2ccccn2c1CN(C)C(=O)CCCn1ccnc1 | 3% | -0.59
CN(Cc1cc(-c2ccccc2)n[nH]1)C(=O)NC1CCN(C2CCCC2)CC1 | 5% | -1.17
CCc1ccccc1Nc1nc(Nc2ccccc2CC)nc(N2CCC(C)CC2)n1 | 5% | -0.92
CN1CCN(c2cc(N3CCC(Cc4ccc(=O)[nH]c4)CC3)nc(N)n2)CC1 | 0% | 0.06
NC(=O)[C@@H]1CCCN1C1CCN(c2cc(N3CCCC3)ncn2)CC1 | -2% | 0.43
COc1ccc(-c2cc3n(n2)CCCN(Cc2ccc(N(C)C)cc2)C3)cc1OC | 3% | -0.48
CN(C)C1=NC2(CCN(Cc3nc(C(F)(F)F)no3)CC2)C(=O)N1 | 5% | -0.94
COc1ccc2[nH]c(CN[C@H]3CCC(=O)N(Cc4ccccc4)CC3)nc2c1 | -2% | 0.52
CCCCc1nc2c(OCC)cccn2c(=O)c1-c1ccc(N[C@H]2CCNC2)cc1 | -9% | 1.76
Cc1oc(-c2cccs2)nc1CN(CC1CCN(C2CCCC2)CC1)C[C@H]1CCCO1 | 0% | 0
O=C(c1ccco1)N1C[C@@H]2[C@@H](CN3CCC(Nc4ncccn4)CC3)[C@@H]2C1 | -6% | 0.88
Cc1ccc(NCCCNc2ncc(F)c(N3CCCC3)n2)nc1 | -1% | 0.18
Cc1ccncc1-c1cccc2[nH]ccc12 | 2% | -0.27
OCCNc1cc(-c2ccc3c(c2)OCC(N2CCCC2)C3O)c2cc[nH]c2n1 (centres undefined) | -6% | 1.01
Cc1cccc2c(-c3ccc(O)c(-c4ccno4)c3)c[nH]c12 | 10% | -2.1
COc1ccc(C2CN(C(=O)C(C)(C)OC)CC2N)cc1 (centres undefined) | -8% | 1.56
C[C@H](NC1CCN(C)CC1)c1coc2ccccc12 | 2% | -0.26
COC(C)(C)CCC[C@H](C)CCNCCN1CCN(C(C)C)CC1 | 18% | -3.18
COc1ccc(-c2nccn2CCc2c[nH]c3ccccc23)cc1O | -1% | 0.14
O=C1c2ccccc2C(=O)C1[C@H](c1ccccc1)c1c[nH]c2ccccc12 | -5% | 0.72
Cc1ccccc1Cn1cc(-c2ccncc2)cc1C(=O)N1CCN(C2CCCCC2)CC1 | -1% | 0.24

SMILES | % Inhibition | Z score
O=C(Nc1cnn(-c2ccccc2F)c1)C1=CCCCO1 | -2% | 0.37
CC(C)(C)OC(=O)N1CC[C@H](Nc2cc(-c3ccccc3)ncn2)C1 | -3% | 0.56
CNc1cc([C@H]2C[C@@H](Nc3cnc4ccccc4n3)C2)nc(N)n1 | -3% | 0.5
CS(=O)(=O)N1CCCC[C@@H]1CCNC(=O)c1cc(-c2ccncc2)[nH]n1 | -6% | 0.94
c1cnc(-n2cncn2)c(CNc2cc(C3CCNCC3)ncn2)c1 | -2% | 0.43
CC(C)Nc1cc(N2CC(CO)C(CN(C)CCO)C2)ncn1 (centres undefined) | -5% | 0.97
Cc1ccc(C)c(-n2cnc(=O)n2Cc2c(C)noc2C)c1 | -10% | 1.58
CCN(CC)C[C@H]1CCCN1c1ccc(-c2nc(C3CC3)no2)cn1 | -5% | 0.79
COc1ccc(-c2cc(C(=O)NCc3ccc(N4CC(C)OC(C)C4)nc3)no2)c(F)c1 (centres undefined) | -12% | 2
Cc1ncc(CNC[C@H](C)N(C)C2CC2)n1-c1ccccc1 | 6% | -1.27
Oc1cc(/C=C/c2ccccc2)nc2ccccc12 | 11% | -1.87
CS(=O)(=O)N1CCCCC[C@H]1C1CCN(Cc2ccc(F)c3cccnc23)CC1 | -1% | 0.19
CC[C@H]1CN(C(=O)c2ccc(NCCc3c[nH]cn3)nc2)CCN1C(C)C | 0% | 0.08
CN1CCC(C(=O)NCCCn2ccnc2)(N(CCc2c[nH]c3ccccc23)C(=O)Cc2ccccc2)CC1 | 20% | -3.45
FC(F)(F)c1nc(NCC2CCN(c3ccncc3)CC2)c2nc[nH]c2n1 | -1% | 0.17
CN(C)c1cc(C(=O)NCc2ccc(Cl)cn2)c2ccccc2n1 | 7% | -1.21
CN1CCN(Cc2cccc(NC(=O)c3cncc(N4CCOCC4)c3)c2)CC1 | -7% | 1.61
O=C(CN1CCCCCC1)N1CCC(CC2CC2)(c2noc(-c3cccnc3)n2)CC1 | -5% | 0.82
Cc1c(CN(C)C[C@H](O)CN(C)C(=O)OC(C)(C)C)cnn1C | -8% | 1.42
Cc1cc(C)n(CCN(C)C(=O)N[C@H]2CC(=O)N(c3ccc(F)cc3)C2)n1 | -6% | 1.25
Cn1cc(CC(=O)N2CCCC[C@@H]2CCN2CCOCC2)c2ccccc21 | -6% | 1.13

SMILES | % Inhibition | Z score
C[C@H](Nc1ncnc2[nH]ccc12)c1ccc(OCc2cccnc2)cc1 | -1% | 0.1
COc1cc(=O)n2c(c1C(=O)N(C)Cc1cscn1)CCN(C(=O)c1cc(C)ccc1C)CC2 | -7% | 1.3
COC(=O)c1ccc(F)cc1S(=O)(=O)Nc1cccc(C(=O)N(C)C)n1 | -5% | 0.99
CS(=O)(=O)NCC1CCN(C(=O)c2cc(C3CC3)[nH]n2)CC1 | -3% | 0.73
Cn1c(CN2CCc3ccc(Br)cc32)nnc1C1CC1 | 7% | -1.28
C=C(C)COc1ccc2oc(-c3ccc(OC)cc3)c(C(=O)NCc3ccco3)c2c1 | -4% | 0.54
COc1ccc(-c2cccc(C(=O)N3CCN(CC(N)=O)CC3)c2)c(F)c1 | -6% | 1.1
CCCN1C[C@@H](NC(=O)c2ccc(-c3ccc4c(cnn4C)c3)cc2)CC1=O | -6% | 0.95
N#CCCCN1CCN(C(=O)c2ccc(-c3cc(-c4ccc5c(c4)OCCO5)n[nH]3)cc2)CC1 | -8% | 1.34
CCCS(=O)(=O)c1cc(N)cc2[nH]c(-c3ccc(Cl)cc3)cc12 | -5% | 0.9
CCCCc1nc(C)cc(NCCNc2ncnc3cc[nH]c23)n1 | 10% | -1.84
CCNc1ccc(-c2cccc(C(=O)N3CCN(CCOC)CC3)c2)nn1 | 14% | -3.09
CCN(C[C@H]1CCCO1)S(=O)(=O)CC1(C(=O)OC)CCOCC1 | 6% | -1.26
Cc1c(CCNc2nccc(-c3ccncc3)n2)c2cccc3c2n1CCC3 | -2% | 0.47
O=C1C[C@H](CNCc2ccc(-c3cccnc3)cc2)CN1C1CCCC1 | -2% | 0.43
CCCn1nc(C)c(CNCc2ccc(-c3ccn[nH]3)cc2)c1C | -1% | 0.27
C[C@@H](CNC1CCN(C2CCN(C)CC2)CC1)c1cccc(Cl)c1 | 97% | -17.23
CN1CCN(c2ncccc2CNCc2n[nH]c3ccccc23)CC1 | 10% | -1.84
N#Cc1ccc(Cl)cc1NCCCCN1CCN(CCO)CC1 | -2% | 0.34
C[C@@H](C(=O)O)N(C)Cc1nnnn1-c1ccc(Cl)cc1C(F)(F)F | -9% | 1.66
Nc1ccc(-c2ccc(O)c(OC(F)(F)F)c2)nc1 | 3% | -0.41

SMILES | % Inhibition | Z score
N[C@@H](Cc1ccc(O)cc1)C(=O)NCCCc1nc2cc(Cl)ccc2[nH]1 | 5% | -0.92
Cc1cc(NCCN2CCCCC2=O)nc2ccc(F)cc12 | -18% | 3.17
Nc1nc(N[C@H]2C[C@@H](c3cc(NCCO)ncn3)C2)c2cn[nH]c2n1 | -3% | 0.45
COc1ccc(CNCCNc2ncccc2C(F)(F)F)cc1O | -4% | 0.7
CN1CCC(N2CCC(CNC(=O)c3cc(C#N)c[nH]3)CC2)CC1 | -11% | 1.9
O=C(NCc1nc2cc(Cl)ccc2[nH]1)N1CCC[C@H](CN2CCCC2)C1 | -8% | 1.37
FC(F)(F)Oc1ccc(N2CCC(Nc3cnc4ccccc4n3)CC2)cc1 | -4% | 0.64
O=C(Nc1cccc(-c2ccn[nH]2)c1)C1CN(c2cc(-n3cccn3)ncn2)C1 | -3% | 0.56
C[C@@H](CN1CCN(C)CC1)N1CCC2(CCNCC2)C1 | -15% | 2.61
c1ccc(-c2ccnc(NCCc3csc(-c4cccnc4)n3)n2)nc1 | -16% | 2.8
O=C(NCCCN1CCC(N2CCCCC2)CC1)[C@@H]1Cc2ccccc2N1C(=O)c1ccccc1 | 2% | -0.27
CCc1cc(Nc2ccc(N3CCOCC3)nc2)nc(-c2ccncc2)n1 | 56% | -9.65
c1ccc(N2CCC(NCc3ccnc(OCC4CC4)c3)CC2)nc1 | -7% | 1.55
Cc1cc2nc(-c3ccccc3)cc(N[C@@H]3CCCNC3)n2n1 | -1% | 0.13
Fc1ccccc1-c1nnc2ccc(NCc3ccccc3OC3CCCC3)nn12 | -5% | 0.8
Cc1c(NC2CCN(C)CC2)ncnc1NC1CCN(C)CC1 | -1% | 0.22
Cc1ccc(CCC(=O)N2CC(=O)N[C@@H](Cc3ccccc3)C2)c(C)c1 | 2% | -0.46
O=C(NCc1cccnc1)c1ccc(N2CCC(NCCCn3ncc4ccccc43)CC2)cc1 | 20% | -3.49
COc1ccc(Cl)cc1Nc1cc(=O)[nH]c2ccccc12 | -3% | 0.54
